Source: PubChem BioAssay (NCI)
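The compound was tested at five concentrations on cells cultured in 96-well plates, with a 48-hour exposure period. GI50 marks 50% less growth.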 For part of its entries the source gives two or more results. This is not the full list of results. An entry can have further records. Records of one sample usually come from different ranges of test concentrations, not given here; some values may only mark the edge of a range. Brackets tell where a record comes from. A, B and so on number the origins entry by entry.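 TGI denotes the concentration required for complete inhibition of growth.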

How the values were obtained:
Test in all cases: growth of human tumour cells (NCI), 48 h
[1] = tested on: 786-0 renal
[2] = tested on: A498 renal
[3] = tested on: A549 NSCLC
[4] = tested on: ACHN renal
[5] = tested on: BT-549 breast
[6] = tested on: CAKI-1 renal
[7] = tested on: CCRF-CEM leukemia
[8] = tested on: DMS 114 small cell lung
[9] = tested on: DMS 273 small cell lung
[10] = tested on: DU-145 prostate
[11] = tested on: EKVX NSCLC
[12] = tested on: HCC-2998 colon
[13] = tested on: HCT-116 colon
[14] = tested on: HL-60(TB) leukemia
[15] = tested on: HOP-18 NSCLC
[16] = tested on: HOP-62 NSCLC
[17] = tested on: HOP-92 NSCLC
[18] = tested on: HS 578T breast
[19] = tested on: HT29 colon
[20] = tested on: IGROV1 ovarian
[21] = tested on: K-562 leukemia
[22] = tested on: KM12 colon
[23] = tested on: KM20L2 colon
[24] = tested on: LOX IMVI melanoma
[25] = tested on: LXFL 529 NSCLC
[26] = tested on: M14 melanoma
[27] = tested on: M19-MEL melanoma
[28] = tested on: MALME-3M melanoma
[29] = tested on: MCF7 breast
[30] = tested on: MDA-MB-231 breast

SMILES: COc1cccc2c1C(=O)c1c(O)c3c(c(O)c1C2=O)C[C@@](O)(C(C)=O)C[C@@H]3OC1CC(N)C(O)C(C)O1 (stereo partly drawn)
- TGI [1]: 663 nM, 1.32 µM, 221 nM, 1.52 µM, 470 nM, > 5.01 µM [sample A] and 792 nM [sample B]
- TGI [2]: 5.42 µM, 784 nM, 394 nM, 633 nM [sample A] and 561 nM [sample B]
- TGI [3]: 18.9 µM [1 test] and 1.89 µM [mean of 37 tests] and 2.64 µM [mean of 65 tests]
- TGI [4]: 174 nM, 17.2 µM [sample A, 1 test] and 253 nM [sample A, mean of 12 tests] and 451 nM [sample A, mean of 61 tests] and 97.4 nM [sample B, mean of 2 tests]
- TGI [5]: 1.86 µM, 551 nM, 857 nM [sample A, mean of 2 tests] and 1.09 µM [sample A, mean of 21 tests] and 1.34 µM [sample B, 1 test]
- TGI [6]: 1.96 µM, 25.3 µM, 223 nM, 1.21 µM, 17.8 µM
- TGI [7]: 713 nM, 564 nM, 842 nM, 85.9 nM, 1.94 µM, > 5.01 µM [sample A] and 448 nM [sample B]
- GI50 [8]: > 5.01 µM [1 test] and 86.5 nM [mean of 35 tests]
- TGI [8]: 340 nM, 304 nM, > 5.01 µM
- GI50 [9]: > 5.01 µM [1 test] and 15.8 nM [mean of 37 tests]
- TGI [9]: 511 nM, 350 nM, > 5.01 µM
- GI50 [10]: 222 nM, 29.4 nM [sample A, 1 test] and 75.6 nM [sample A, mean of 22 tests] and 64.6 nM [sample B, 1 test]
- TGI [10]: 165 nM [sample A, 1 test] and 1.73 µM [sample A, mean of 22 tests] and 15.3 µM [sample B, 1 test]
- TGI [11]: 3.93 µM, 7.18 µM [sample A, 1 test] and 1.74 µM, 1.88 µM [sample A, mean of 2 tests] and 1.76 µM [sample A, mean of 39 tests] and 3.07 µM [sample A, mean of 65 tests] and 2.45 µM [sample B, mean of 2 tests]
- TGI [12]: 689 nM, 996 nM, 414 nM, 1.26 µM, 818 nM, > 5.01 µM [sample A] and 904 nM [sample B]
- TGI [13]: 679 nM, > 5.01 µM [sample A, 1 test] and 1.89 µM [sample A, mean of 20 tests] and 1.74 µM [sample A, mean of 54 tests] and 3.91 µM [sample B, mean of 2 tests]
- TGI [14]: 737 nM, 349 nM, 7.93 µM, < 12.9 nM, 139 nM, > 5.01 µM [sample A] and 176 nM [sample B]
- TGI [15]: 1.66 µM, 658 nM, 9.08 µM
- TGI [16]: > 5.01 µM [sample A, 1 test] and 487 nM, 258 nM, 196 nM [sample A, mean of 2 tests] and 274 nM [sample A, mean of 36 tests] and 295 nM [sample A, mean of 66 tests] and 200 nM [sample B, mean of 2 tests]
- TGI [17]: > 5.01 µM [sample A, 1 test] and 600 nM, 167 nM, 412 nM [sample A, mean of 2 tests] and 614 nM [sample A, mean of 39 tests] and 772 nM [sample A, mean of 62 tests] and < 27.1 nM [sample B, mean of 2 tests]
- TGI [18]: 800 nM, 1.6 µM, 597 nM, 297 nM [sample A] and 1.63 µM [sample B]
- TGI [19]: 16.6 µM [sample A, 1 test] and 1.73 µM, 842 nM, 1.24 µM [sample A, mean of 2 tests] and 2.24 µM [sample A, mean of 43 tests] and 2.27 µM [sample A, mean of 71 tests] and 1.24 µM [sample B, 1 test]
- TGI [20]: 1.69 µM, 6.66 µM [sample A, 1 test] and 1.74 µM, 469 nM [sample A, mean of 2 tests] and 2.16 µM [sample A, mean of 41 tests] and 3.12 µM [sample A, mean of 63 tests] and 1.35 µM [sample B, mean of 2 tests]
- TGI [21]: 166 nM, > 5.01 µM [sample A, 1 test] and 1.64 µM, 262 nM [sample A, mean of 2 tests] and 3.79 µM [sample A, mean of 36 tests] and 3.66 µM [sample A, mean of 71 tests] and 219 nM [sample B, 1 test]
- TGI [22]: > 5.01 µM [sample A, 1 test] and 3.1 µM, 1.05 µM, 514 nM [sample A, mean of 2 tests] and 2.29 µM [sample A, mean of 38 tests] and 2.42 µM [sample A, mean of 70 tests] and 988 nM [sample B, mean of 2 tests]
- GI50 [23]: > 5.01 µM [1 test] and 123 nM [mean of 38 tests]
- TGI [24]: 380 nM, 310 nM, 31.2 nM, 204 nM, 5.12 µM [sample A] and 484 nM [sample B]
- GI50 [25]: > 5.01 µM [1 test] and 87 nM [mean of 11 tests]
- TGI [26]: > 5.01 µM [sample A, 1 test] and 698 nM [sample A, mean of 12 tests] and 1.34 µM, 1.19 µM, 465 nM [sample A, mean of 2 tests] and 943 nM [sample A, mean of 71 tests] and 524 nM [sample B, mean of 2 tests]
- TGI [27]: 506 nM, 359 nM, > 5.01 µM
- TGI [28]: 53.9 nM, 423 nM, 525 nM, 196 nM, 349 nM, > 5.01 µM [sample A] and 161 nM [sample B]
- TGI [29]: 6.63, 2.64, 4.83, 3.69, 1.41 µM [sample A] and 4.17 µM [sample B]
- TGI [30]: 2.65 µM, 1.23 µM, 769 nM [sample A, mean of 2 tests] and 2.37 µM [sample A, mean of 28 tests] and 1.19 µM [sample B, mean of 2 tests]
